From PubChem BioAssay AID360 (National Center for Advancing Translational Sciences (NCATS), 2006)
In all, about 48,000 compounds went through this assay and about 550 (1.1%) were called active. About 4% were inconclusive and are not listed. Rule as the data show it: active = potency below about 15 µM; inconclusive = mostly about 16 µM to 33 µM; inactive = weaker than that. The list shows a part of the results.

Each molecule was assayed against Lysosomal acid glucosylceramidase (Homo sapiens) (UniProt P04062) (assay: Glucocerebrosidase). Conditions: purified enzyme, resorufin glucoside fluorescence (screen aimed at inhibitors), 20 min.
Procedure, shortened: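 Normal human glucocerebrosidase (0.2 nM final) was assayed with resorufin β-D-glucopyranoside (30 uM final) in 50mM citric acid/KH2PO4, 10mM sodium taurocholate, 0.01% tween-20, pH 5.9. Compounds were titrated; fluorescence (Ex 548, Em 600) read after 20 min at RT.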
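Also: the screen sought inhibitors.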
Potency is read from the fitted curve at half-maximal effect.

Chain of UniProt P04062 (P04062 whole entry, looked up): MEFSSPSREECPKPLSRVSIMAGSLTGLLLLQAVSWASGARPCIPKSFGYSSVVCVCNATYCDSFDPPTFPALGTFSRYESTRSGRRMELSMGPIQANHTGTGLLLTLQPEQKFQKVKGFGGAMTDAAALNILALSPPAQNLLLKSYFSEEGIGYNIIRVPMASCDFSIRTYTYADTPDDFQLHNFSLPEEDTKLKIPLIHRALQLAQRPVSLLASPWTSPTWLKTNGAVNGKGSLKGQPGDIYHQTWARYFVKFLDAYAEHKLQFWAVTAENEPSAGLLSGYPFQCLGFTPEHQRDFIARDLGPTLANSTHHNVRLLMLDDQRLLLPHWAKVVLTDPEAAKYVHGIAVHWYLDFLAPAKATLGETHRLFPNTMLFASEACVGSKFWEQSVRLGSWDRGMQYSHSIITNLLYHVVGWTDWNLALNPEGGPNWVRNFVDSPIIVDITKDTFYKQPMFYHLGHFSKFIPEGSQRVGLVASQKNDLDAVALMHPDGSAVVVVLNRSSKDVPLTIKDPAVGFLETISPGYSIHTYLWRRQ

Potency, inactive:
Cc1ccc(-n2c(SCC3CCCCO3)nnc2-c2ccco2)cc1 (stereo not drawn) > 76.9 µM, c1ccc2c(c1)oc1c(NCCN3CCOCC3)ncnc12 > 76.9 µM, CC1(C)Cc2c(sc3c2c(=N)n(Cc2ccco2)c(=O)n3Cc2ccc(F)cc2)CO1 > 76.9 µM, N#CC1=C(SCC(=O)NC2CC2)NC(=O)C(C#N)C12CCCCC2 (stereo not drawn) > 76.9 µM, Fc1ccccc1Cn1nnc2c(NCc3ccccn3)ncnc21 > 76.9 µM, CCOC(=O)c1cc2sccc2n1Cc1ccc(C#N)cc1 > 76.9 µM, COc1cc(C2/C(=C(/O)c3ccc(OCC(C)C)cc3)C(=O)C(=O)N2CCN(C)C)ccc1O (stereo not drawn) > 76.9 µM, COc1ccc(S(=O)(=O)n2nc(OC(=O)c3ccco3)cc2N)cc1 > 76.9 µM, CCOc1cccc(-c2nnc(SCC(=O)Nc3cc(OC)cc(OC)c3)n2N)c1 > 76.9 µM, CCC(=O)Nc1ccc(NC(=O)c2ccccc2Cl)nc1 > 76.9 µM, CC1(C)CC(=O)c2cnc(NC(=O)c3ccco3)nc2C1 > 76.9 µM, COc1ccc(-c2c3c(=O)n(C)c(=O)n(C)c3cn2-c2cc(OC)ccc2OC)cc1 > 76.9 µM, O=C(CN1C(=O)c2ccccc2C1=O)N1CCCCC1 > 76.9 µM, CC1Cn2c(nc3sc4c(c3c2=O)CCC4)N1CCO (stereo not drawn) > 76.9 µM, COC(=O)c1cc(-c2c[nH]c3ccccc23)n[nH]1 > 76.9 µM, COC(=O)c1cc(-c2ccc(OC)c(OC)c2)on1 > 76.9 µM, O=C(CSc1nnc(-c2ccco2)n1-c1ccccc1)N1CCc2ccccc21 > 76.9 µM, O=C(CN1CCOCC1)Nc1ccc(Br)cn1 > 76.9 µM, CCOC(=O)N1CCN(S(=O)(=O)c2cc(Br)cc3c2N(C(=O)C2CC2)CC3)CC1 > 76.9 µM, CCCc1cc(-c2ccc(O)c(OCC)c2)c(C#N)c(N)n1 > 76.9 µM, CCc1c(O)nc(SCC(=O)Nc2ccccc2C)[nH]c1=O > 76.9 µM, Cc1c(N=Cc2ccncc2)c(=O)n(-c2ccccc2)n1C > 76.9 µM, CCOc1ccc(-c2nnn(CC(=O)NCc3ccc(OC)cc3)n2)cc1OCC > 76.9 µM, O=C(NCc1ccccc1)N(Cc1cc2cc3c(cc2[nH]c1=O)OCCO3)CC1CCCO1 (stereo not drawn) > 76.9 µM, CCOc1ccc2[nH]c(=O)c(C(c3nnnn3C3CCCCC3)N3CCN(CC)CC3)cc2c1 (stereo not drawn) > 76.9 µM, COc1ccc(C(=O)COC(=O)c2ccco2)cc1 > 76.9 µM, COc1ccc(OC)c(S(=O)(=O)N2c3ccccc3CC2C)c1 (stereo not drawn) > 76.9 µM, CCCCc1nc2ccccc2c(=O)n1NC(=O)c1c(O)c2cccc3c2n(c1=O)CCC3 > 76.9 µM, C=CCNC(=O)c1nn2cccnc2c1Cl > 76.9 µM, O=C1C2C3C=CC(C3)C2C(=O)N1c1n[nH]c(-c2cccnc2)n1 (stereo not drawn) > 76.9 µM, CCCC1C(c2ccco2)NC(c2ccco2)CC1(C)O (stereo not drawn) > 76.9 µM, Nc1c(C(=O)NC2CC2)c2nc3ccccc3nc2n1-c1ccc2c(c1)OCO2 > 76.9 µM, O=C(O)CCS(=O)(=O)Cc1cccc(Cl)c1 > 76.9 µM, Cc1onc(-c2ccccc2)c1C(=O)Nc1cccnc1 > 76.9 µM, CCOC(=O)N1CCN(S(=O)(=O)c2ccc3[nH]c(=O)sc3c2)CC1 > 76.9 µM, Cc1ccc(OC(=O)c2cccc(C(=O)Oc3ccc(C)cn3)n2)nc1 > 76.9 µM, O=c1cc(Cn2nnc(-c3ccc(Cl)cc3)n2)nc2sccn12 > 76.9 µM, COC(=O)c1cc(OC)c(OC)cc1NC(=O)CN1CCOCC1 > 76.9 µM, O=C(CCCCCC(=O)N(CCO)CCO)N(CCO)CCO > 76.9 µM, COc1ccc(OC)c(NC(=O)CNC(=O)Cn2cnc3ccccc3c2=O)c1 > 76.9 µM, CCCCn1c(SCC(=O)N2CCOCC2)nnc1-c1cccs1 > 76.9 µM, COc1cccc(N2C(=O)C3C(C2=O)C2C=CC3C23CC3)c1 (stereo not drawn) > 76.9 µM, O=C(COc1ncnc2ccccc12)N1CCOCC1 > 76.9 µM, O=C(/C=N/O)NCCN1CCCCC1 > 76.9 µM, O=C(NC1(C(F)(F)F)NC(=O)N(Cc2ccco2)C1=O)c1cccs1 (stereo not drawn) > 76.9 µM, Nc1ncnc2c1ncn2CCNCCc1ccccc1 > 76.9 µM, Cc1ccc(OC(=O)NC2CCS(=O)(=O)C2)cc1C (stereo not drawn) > 76.9 µM, COc1ccc(-n2c(SCC(=O)c3c(N)n(C)c(=O)n(C)c3=O)nc3ccccc32)cc1 > 76.9 µM, COc1cccc(NC(=O)[C@@H]2CCCN2C(=O)C2CCN(S(=O)(=O)c3ccc(C)cc3)CC2)c1 > 76.9 µM, O=C(CSc1nnc(-c2ccccc2)o1)N1CCOCC1 > 76.9 µM, Cc1ccccc1OCC(=O)N(Cc1ccc(N(C)C)cc1)C1CCS(=O)(=O)C1 (stereo not drawn) > 76.9 µM, COc1cccc(-c2noc(CCC(=O)NC3CCCCC3)n2)c1 > 76.9 µM, CCCC(=O)Nc1ccccc1-c1nnn(CC(=O)Nc2ccc(OC)cc2)n1 > 76.9 µM, Cc1ccc(CCN2CC(C(=O)NCCN3CCCCCC3)CC2=O)cc1 (stereo not drawn) > 76.9 µM, COc1ccc(-c2cc(C(F)F)n3ncc(C(=O)N4CCSCC4)c3n2)cc1 > 76.9 µM, COc1ccc(C2N(c3ccccn3)C(=O)C3CCCN32)c(OC)c1 (stereo not drawn) > 76.9 µM, Cc1cnc(C(=O)OCC(=O)N2CCN(C(=O)c3ccco3)CC2)cn1 > 76.9 µM

Potency, active:
Cc1ccc(-c2noc(CCC(=O)NCCN3CCc4ccccc4C3)n2)cc1 15 µM
